Reference: paper PMC10662374, “Structures of the interleukin 11 signalling complex reveal gp130 dynamics and the inhibitory mechanism of a cytokine variant” (Nature Communications, 2023)
Results are given in words; binding and its absence hold for the method and conditions named. Some entries that bind do so weakly or less than the wild type. One block for each molecule: values may come before it.

Experiments:
[1] = molecular target: T1, IL-11_(Δ10/Mutein)/IL-11Rα_(D1-D3)/gp130_(D1-D3) complex (human) (UniProt P20809+Q14626+P40189); assay: AUC; sedimentation velocity, 50,000 rpm, 20 °C, c(s) model with floating frictional ratio (SEDFIT); both purified
[2] = molecular target: T1, IL-11_(Δ10/Mutein)/IL-11Rα_(D1-D3)/gp130_(D1-D3) complex (human); assay: SAXS; in-line size exclusion (Superdex 200 5/150 Increase), TBS pH 8.5, 0.2% sodium azide; fit of models with CRYSOL; both purified
[3] = molecular target: T1, IL-11_(Δ10/Mutein)/IL-11Rα_(D1-D3)/gp130_(D1-D3) complex (human); assay: SEC-MALS; Zenix-C SEC-300 column, 20 mM Tris, 150 mM sodium chloride pH 8.5, ~2 mg/mL applied; both purified
[4] = molecular target: IL-11_(Δ10/W147A) (human) (UniProt P20809); assay: AUC; sedimentation velocity, 50,000 rpm, 20 °C, c(s) model with floating frictional ratio (SEDFIT); both purified
[5] = molecular target: T2, IL-11_(Δ10/Mutein) (human) (UniProt P20809); assay: as above
T2 sequence: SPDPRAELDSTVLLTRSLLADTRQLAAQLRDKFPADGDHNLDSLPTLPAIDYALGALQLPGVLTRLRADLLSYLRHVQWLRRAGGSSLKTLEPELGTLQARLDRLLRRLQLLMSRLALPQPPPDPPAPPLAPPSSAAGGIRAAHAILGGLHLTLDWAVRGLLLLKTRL

[6] = molecular target: T3, IL-11Δ10/IL-11Rα_(D1-D3) binary complex (human, UniProt P20809 32-199; Q14626 23-319); assay: as above
T3 construct: IL-11, human, IL-11Δ10, as m1; numbers count on: the mature protein; IL-11Rα, human, D1-D3, as m8; m1 with m8; also called IL-11Rα_(D1-D3)/IL-11Δ10 binary complex; binary IL-11/IL-11Rα complex; source: formed from the purified proteins (IL-11Δ10 from E. coli, IL-11Rα_(D1-D3) from Sf21); in ITC by titrating the cytokine into IL-11Rα; not shown: His6, N-terminal, cleaved; His8, N-terminal, cleaved; …
T3 sequence 1: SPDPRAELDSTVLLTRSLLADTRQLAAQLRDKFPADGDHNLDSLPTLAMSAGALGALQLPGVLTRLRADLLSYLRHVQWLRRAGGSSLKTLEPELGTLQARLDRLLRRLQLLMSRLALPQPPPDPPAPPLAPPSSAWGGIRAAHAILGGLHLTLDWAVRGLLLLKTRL
T3 sequence 2: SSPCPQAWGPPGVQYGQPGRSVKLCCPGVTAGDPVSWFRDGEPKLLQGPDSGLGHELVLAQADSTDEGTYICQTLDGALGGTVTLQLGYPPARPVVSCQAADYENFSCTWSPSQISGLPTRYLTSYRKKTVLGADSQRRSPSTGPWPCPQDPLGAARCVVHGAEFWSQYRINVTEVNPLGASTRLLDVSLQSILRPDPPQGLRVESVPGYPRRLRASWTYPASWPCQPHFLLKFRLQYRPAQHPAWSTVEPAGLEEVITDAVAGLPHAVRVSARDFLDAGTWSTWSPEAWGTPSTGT

[7] = molecular target: T4, IL-11_(Δ10/Mutein)/IL-11Rα_(D1-D3) binary complex (human) (UniProt P20809+Q14626); assay: as above
T4 sequence 1: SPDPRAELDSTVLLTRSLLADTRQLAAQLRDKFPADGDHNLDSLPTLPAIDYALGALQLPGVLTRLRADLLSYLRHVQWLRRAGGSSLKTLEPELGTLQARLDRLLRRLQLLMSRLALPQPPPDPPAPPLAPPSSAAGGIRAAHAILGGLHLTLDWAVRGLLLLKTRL
T4 sequence 2: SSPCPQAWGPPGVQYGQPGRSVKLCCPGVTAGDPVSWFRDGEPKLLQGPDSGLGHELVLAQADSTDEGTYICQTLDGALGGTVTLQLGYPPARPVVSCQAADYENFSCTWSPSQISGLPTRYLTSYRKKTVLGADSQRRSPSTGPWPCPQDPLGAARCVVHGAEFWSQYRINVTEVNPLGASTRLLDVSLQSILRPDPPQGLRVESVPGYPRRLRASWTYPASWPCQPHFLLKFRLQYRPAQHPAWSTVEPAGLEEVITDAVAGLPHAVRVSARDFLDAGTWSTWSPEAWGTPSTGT

[8] = molecular target: T5, IL-11_(Δ10/W147A)/IL-11Rα_(D1-D3) binary complex (human) (UniProt P20809+Q14626); assay: as above
T5 sequence 1: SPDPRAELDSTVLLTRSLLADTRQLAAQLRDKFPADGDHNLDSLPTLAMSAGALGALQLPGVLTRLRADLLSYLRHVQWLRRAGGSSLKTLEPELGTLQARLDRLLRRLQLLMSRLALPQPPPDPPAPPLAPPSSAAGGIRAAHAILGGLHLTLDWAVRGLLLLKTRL
T5 sequence 2: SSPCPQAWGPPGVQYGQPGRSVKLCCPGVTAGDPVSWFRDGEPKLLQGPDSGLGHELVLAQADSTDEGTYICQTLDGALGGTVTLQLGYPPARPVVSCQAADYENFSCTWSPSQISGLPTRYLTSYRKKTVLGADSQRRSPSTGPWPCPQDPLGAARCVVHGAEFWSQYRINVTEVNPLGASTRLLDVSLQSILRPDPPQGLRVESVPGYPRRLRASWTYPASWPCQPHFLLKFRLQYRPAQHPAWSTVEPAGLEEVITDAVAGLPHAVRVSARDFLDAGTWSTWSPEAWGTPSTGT

[9] = molecular target: T6, IL-11Rα_(D1-D3) (human) (UniProt Q14626); assay: cryo-EM structure; IL-11Δ10/IL-11Rα_(D1-D3)/gp130_(D1-D3) complex, equimolar mix, size exclusion purified in TBS pH 8.0, 0.5 mg/mL on grids; C2 symmetry, 3.5 Å; both purified
T6 sequence (chain, N-linked glycans (N105, N172 seen in the structures)): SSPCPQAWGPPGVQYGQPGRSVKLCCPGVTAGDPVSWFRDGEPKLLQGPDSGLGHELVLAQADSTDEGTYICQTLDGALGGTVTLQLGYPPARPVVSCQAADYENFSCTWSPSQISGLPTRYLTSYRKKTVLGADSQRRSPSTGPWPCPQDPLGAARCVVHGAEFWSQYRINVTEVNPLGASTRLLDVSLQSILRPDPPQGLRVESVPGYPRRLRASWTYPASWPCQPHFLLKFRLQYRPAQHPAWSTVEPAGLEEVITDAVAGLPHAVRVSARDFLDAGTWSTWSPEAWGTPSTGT

[10] = molecular target: T7, IL-11Δ10 (human) (UniProt P20809); assay: as above
T7 sequence: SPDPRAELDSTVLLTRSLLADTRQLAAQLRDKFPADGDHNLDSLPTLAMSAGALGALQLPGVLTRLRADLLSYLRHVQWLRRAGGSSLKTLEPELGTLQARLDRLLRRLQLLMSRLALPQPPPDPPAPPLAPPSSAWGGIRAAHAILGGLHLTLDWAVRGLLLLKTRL

[11] = molecular target: T3, IL-11Δ10/IL-11Rα_(D1-D3) binary complex; assay: AUC; sedimentation equilibrium at three speeds, single-species analysis (SEDPHAT), relative molecular mass M*; complexes size exclusion purified before; both purified
[12] = molecular target: T2, IL-11_(Δ10/Mutein) (human); assay: SAXS; in-line size exclusion (Superdex 200 5/150 Increase), TBS pH 8.5, 0.2% sodium azide; fit of models with CRYSOL; both purified
[13] = molecular target: T3, IL-11Δ10/IL-11Rα_(D1-D3) binary complex; assay: as above
[14] = molecular target: T4, IL-11_(Δ10/Mutein)/IL-11Rα_(D1-D3) binary complex (human); assay: as above
[15] = molecular target: T3, IL-11Δ10/IL-11Rα_(D1-D3) binary complex; assay: SEC-MALS; Zenix-C SEC-300 column, 20 mM Tris, 150 mM sodium chloride pH 8.5, ~2 mg/mL applied; both purified
[16] = molecular target: T4, IL-11_(Δ10/Mutein)/IL-11Rα_(D1-D3) binary complex (human); assay: as above
[17] = molecular target: T8, IL-11RαEC (human) (UniProt Q14626); assay: crystal structure; IL-11FL/IL-11RαEC/gp130_(D1-D3) complex, equimolar mix purified by gel filtration, crystals at 20 °C; anisotropic data to 3.8 Å, three hexamers in the asymmetric unit; both purified
T8 sequence (chain, N-linked glycans (N105, N172 seen in the structures)): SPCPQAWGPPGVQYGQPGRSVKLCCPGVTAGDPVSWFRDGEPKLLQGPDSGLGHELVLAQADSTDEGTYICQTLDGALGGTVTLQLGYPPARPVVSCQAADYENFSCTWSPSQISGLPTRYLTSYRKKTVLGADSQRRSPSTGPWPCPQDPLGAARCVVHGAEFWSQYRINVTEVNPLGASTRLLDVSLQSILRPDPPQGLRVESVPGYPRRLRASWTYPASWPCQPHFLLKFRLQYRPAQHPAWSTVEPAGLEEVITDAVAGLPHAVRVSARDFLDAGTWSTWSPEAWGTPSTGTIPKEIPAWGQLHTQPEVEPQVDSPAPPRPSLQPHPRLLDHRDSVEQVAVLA

B1: IL-11_(Δ10/W147A) (ligand, human)
chain: SPDPRAELDSTVLLTRSLLADTRQLAAQLRDKFPADGDHNLDSLPTLAMSAGALGALQLPGVLTRLRADLLSYLRHVQWLRRAGGSSLKTLEPELGTLQARLDRLLRRLQLLMSRLALPQPPPDPPAPPLAPPSSAAGGIRAAHAILGGLHLTLDWAVRGLLLLKTRL
notes: interleukin 11 (IL-11), human, IL-11Δ10 with W147A; numbers count on: the mature protein; also called IL-11 W147A; W147A mutant; not shown: His6, N-terminal, cleaved
binding [4]: no binding

B3: gp130_(D1-D3) (receptor, human)
chain: GELLDPCGYISPESPVVQLHSNFTAVCVLKEKCMDYFHVNANYIVWKTNHFTIPKEQYTIINRTASSVTFTDIASLNIQLTCNILTFGQLEQNVYGITIISGLPPEKPKNLSCIVNEGKKMRCEWDGGRETHLETNFTLKSEWATHKFADCKAKRDTPTSCTVDYSTVYFVNIEVWVEAENALGKVTSDHINFDPVYKVKPNPPHNLSVINSEELSSILKLTWTNPSIKSVIILKYNIQYRTKDASTWSQIPPEDTASTRSSFTVQDLKPFTEYVFRIRCMKEDGKGYWSDWSEEASGITYEDR
modifications: N-linked glycans (N21, N61, N135 seen in the structures)
notes: glycoprotein 130 (gp130), human, domains D1-D3; Secreted with a honeybee-melittin signal peptide; not shown: His8, N-terminal, cleaved
binding [6]: binds
binding [7]: binds
binding [8]: binds
binding [9]: binds
binding [10]: binds
binding [11]: binds
binding [12]: binds
binding [13]: binds
binding [14]: binds
binding [15]: binds
binding [16]: binds
binding [17]: binds

More lines, now with the values ahead:

binding [1]: no binding
binding [2]: no binding
binding [3]: no binding
Molecule: IL-11_(Δ10/Mutein)/IL-11Rα_(D1-D3)/gp130_(D1-D3) complex (from UniProt P20809 32-199; Q14626 23-319; P40189 22-325)

binding [5]: no binding
B2: IL-11_(Δ10/Mutein) (ligand, human)
chain: SPDPRAELDSTVLLTRSLLADTRQLAAQLRDKFPADGDHNLDSLPTLPAIDYALGALQLPGVLTRLRADLLSYLRHVQWLRRAGGSSLKTLEPELGTLQARLDRLLRRLQLLMSRLALPQPPPDPPAPPLAPPSSAAGGIRAAHAILGGLHLTLDWAVRGLLLLKTRL
notes: interleukin 11 (IL-11), human, IL-11Δ10 with W147A and AB loop residues 58-62 AMSAG changed to PAIDY; numbers count on: the mature protein; Parent construct IL-11Δ10; also called IL-11 Mutein; not shown: His6, N-terminal, cleaved
